PubChem BioAssay AID485294 (National Center for Advancing Translational Sciences (NCATS), 2010)
The campaign covered roughly 370,000 compounds. About 150 (0.041%) were called active. Inconclusive results, whose numbers are uncertain, are shown with a selection of clear calls. Calls come from the whole dose curve; as a rule, active = well fitted inhibition curve with a large enough effect; inconclusive = small, poorly fitted or top-dose-only effect; inactive = flat fitted curve, though single readings scatter. Potencies of inconclusive entries are left out as doubtful fits.

target: Beta-lactamase (Escherichia coli (strain K12)) (UniProt P00811); assay: qHTS Inhibitors of AmpC Beta-Lactamase (assay with detergent); conditions: AmpC hydrolysis of nitrocefin, absorbance 480 nm, 0.01% Triton; activity change, negative = inhibition: at 114 µM (top of the series); note: nearly all actives have a fitted effect of over 25% in size;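 for activity change, negative = inhibition: 0% = no-compound wells and -100% = no-enzyme wells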
UniProt P00811, sequence (P00811 whole entry, looked up): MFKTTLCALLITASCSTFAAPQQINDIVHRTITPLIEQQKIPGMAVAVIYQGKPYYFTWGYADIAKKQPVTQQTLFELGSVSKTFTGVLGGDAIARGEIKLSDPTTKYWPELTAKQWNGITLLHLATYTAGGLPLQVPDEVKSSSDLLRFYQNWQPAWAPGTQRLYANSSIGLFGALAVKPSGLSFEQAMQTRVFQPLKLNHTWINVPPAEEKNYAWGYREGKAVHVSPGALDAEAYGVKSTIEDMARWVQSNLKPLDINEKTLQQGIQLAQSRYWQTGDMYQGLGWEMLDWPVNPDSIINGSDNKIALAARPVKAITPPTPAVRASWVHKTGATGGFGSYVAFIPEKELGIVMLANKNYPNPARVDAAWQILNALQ
Procedure, shortened: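 20 mM phosphate pH 7.0 + 0.01% (detergent screen) or 0.0001% Triton X-100; 5.3 nM AmpC reagent; cpd preinc 15 min RT; nitrocefin (800 uM stock) to start; A480 q20 s × 4 min; Activity was normalised to no-enzyme and no-compound control wells.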
Potency is the fitted concentration of half-maximal effect; tags give direction and shape of the fitted curve.

Row | SMILES | Potency | activity change, negative = inhibition
1 | Fc1ccccc1CSc1nnc(-c2cccs2)o1 | inconclusive [inhibitor, partial curve] | 
2 | CN(C)CCNc1oc(/C=C/c2ccccc2)nc1C#N |  | inactive: -19.8%
3 | COc1ccc(Oc2coc3c(CN4CCOCC4)c(O)ccc3c2=O)cc1 |  | inactive: 2.87%
4 | CC(C)CNC(=O)COC(=O)c1cc(S(=O)(=O)N2CCCCC2)ccc1N1CCOCC1 | inconclusive [inhibitor, full curve, poor fit] | 
5 | COc1cc2c(cc1OC)CN(C(=O)c1cc(S(=O)(=O)N3CCOCC3)ccc1Cl)CC2 | inconclusive [inhibitor, full curve] | 
6 | O=C(CSc1nc2c(c(=O)[nH]1)CN(Cc1ccc(F)cc1)CC2)Nc1cccc(C(F)(F)F)c1 |  | inactive: 2.41%
7 | CCOc1ccc2[nH]c(=S)[nH]c2c1 | inconclusive [inhibitor, full curve] | 
8 | O=C(c1ccccc1Cc1ccccc1)N1CCN(S(=O)(=O)c2ccccc2F)CC1 |  | inactive: -7.81%
9 | CCN(CC)S(=O)(=O)c1ccc(C(=O)Nc2nnc(CSC)o2)cc1 | inconclusive [inhibitor, full curve, poor fit] | 
10 | CCOC(=O)c1ccc(N2C(=O)c3[nH]nc(-c4ccccc4)c3C2c2cccs2)cc1 (stereo not drawn) |  | inactive: -0.905%
11 | COc1ccccc1NC(=O)C1=C(C)NC(=O)NC1c1cc(C)cs1 (stereo not drawn) | inconclusive [inhibitor, full curve, poor fit] | 
12 | CC(=O)c1ccc(C(=O)Nc2ccc(N3CCOCC3)cc2)cc1 | inconclusive [inhibitor, full curve, poor fit] | 
13 | O=C(CC(C(=O)O)c1ccc(F)cc1)c1ccc(Cl)cc1 (stereo not drawn) |  | inactive: -5.92%
14 | Cc1ccc(CC(=O)N2CCN(S(=O)(=O)c3ccccc3)CC2)cc1C | inconclusive [inhibitor, partial curve, poor fit] | 
15 | CC(=O)Nc1cccc(NC(=O)CSc2ncc(-c3ccccc3)[nH]2)c1 | inconclusive [inhibitor, partial curve, poor fit] | 
16 | CCOC(=O)c1sc(=S)n(CC)c1NC(=O)C1CC1 | inconclusive [inhibitor, full curve] | 
17 | Cc1c(C(=O)OCC(=O)N2C(C)CCCC2C)oc2ccccc12 (stereo not drawn) | inconclusive [inhibitor, single point] | 
18 | COc1ccc2c(c1)CCc1c(C(=O)N3CCCCCC3)noc1-2 | inconclusive [inhibitor, full curve, poor fit] | 
19 | COc1cc(OC)cc(C(=O)NCC2CCCN(Cc3cccc(C(C)=O)c3)C2)c1 (stereo not drawn) | inconclusive [inhibitor, full curve, poor fit] | 
20 | CCCn1c(C)cc(C(=O)COC(=O)c2ccc(Cl)c(S(=O)(=O)N3CCCC3)c2)c1C | inconclusive [inhibitor, partial curve, poor fit] | 
21 | O=C1C2CCCCN2C(=O)N1CCCCN1CCN(c2ccc(F)cc2)CC1 (stereo not drawn) | inconclusive [inhibitor, full curve, poor fit] | 
22 | Cc1ccc(S(=O)(=O)N(CC(=O)Nc2ccccc2-c2ccccc2)c2ccc(C)cc2C)cc1 | inconclusive [inhibitor, partial curve, poor fit] | 

Row | SMILES | Potency | activity change, negative = inhibition
23 | COc1cccc(NC(=O)c2ccc(CN3CCc4ccccc4C3)cc2)c1 | inconclusive [inhibitor, partial curve, poor fit] | 
24 | CCN1CCN(c2ccccc2NC(=O)c2ccc(-n3cccn3)cc2)CC1 | inconclusive [inhibitor, single point] | 
25 | COC(=O)c1ccccc1S(=O)(=O)N1CCC(c2nc3ccccc3o2)CC1 | inconclusive [inhibitor, partial curve, poor fit] | 
26 | O=C(Nc1ncccc1O)c1cccc(S(=O)(=O)NCc2ccccc2)c1 | inconclusive [inhibitor, full curve, poor fit] | 
27 | COc1ccc(OC)c(NC(=O)c2cc(S(=O)(=O)N3CCCC3)cn2C)c1 | inconclusive [inhibitor, full curve, poor fit] | 
28 | Nc1nc(SCc2nc3scc(-c4cccs4)c3c(=O)[nH]2)n[nH]1 | inconclusive [inhibitor, partial curve] | 
29 | CC(=O)NCC1COc2ccccc2O1 (stereo not drawn) |  | inactive: -0.563%
30 | Cn1c(=Nc2ccc(N3CCOCC3)cc2)ccc2ccccc21 | inconclusive [inhibitor, single point] | 
31 | COc1ccc(Nc2nc(N)nc(CSc3nc4ccccc4s3)n2)cc1 |  | inactive: -10%
32 | COc1ccc(S(=O)(=O)N(C)C(C)CCc2ccco2)cc1 (stereo not drawn) |  | inactive: -7.29%
33 | CC1CCN(C(=S)NC(=O)c2cccc([N+](=O)[O-])c2)CC1 |  | inactive: 6.52%
34 | COc1ccc(-c2cc(NCc3ccc(C)cc3)n3cnnc3n2)cc1 |  | inactive: -0.417%
35 | Cc1nnc(SC(C)C(=O)Nc2ccc(S(=O)(=O)N3CCCCCC3)cc2)s1 (stereo not drawn) | inconclusive [inhibitor, full curve, poor fit] | 
36 | COc1ccccc1NC(=O)CN(c1ccccc1F)S(C)(=O)=O | inconclusive [inhibitor, single point] | 
37 | COc1ccc(-c2[nH]c(-c3ccccc3)nc2SCC(=O)NC2CCCC2)cc1 | inconclusive [inhibitor, full curve, poor fit] | 
38 | COC(=O)C(=O)C/C(=N/Nc1ncnc2ccccc12)c1ccc(Cl)cc1 |  | inactive: -7.53%
39 | Cc1ccc(S(=O)(=O)NCCC(=O)Nc2nnc(C3CC3)s2)cc1C | inconclusive [inhibitor, full curve, poor fit] | 
40 | Oc1c(C(Nc2cccc(C(F)(F)F)c2)c2cccnc2)ccc2cccnc12 (stereo not drawn) |  | inactive: -3.26%
41 | O=C(NCC1CCCO1)c1cccc(S(=O)(=O)N(Cc2ccccc2)c2ccccc2)c1 (stereo not drawn) | inconclusive [inhibitor, full curve, poor fit] | 
42 | Cc1oc(/N=C/c2ccc(F)cc2)c(C#N)c1C | inconclusive [inhibitor, full curve, poor fit] | 
43 | COc1cccc(N2CCN(CC(=O)C34CC5CC(CC(C5)C3)C4)CC2)c1 | inconclusive [inhibitor, partial curve] | 
